Measured values reported in patent US5235038A, “Deletion and substitution analogues of melittin peptide” (Torry Pines Institute for Molecular Studies, priority 1991, dated 1993).
In brackets after ≈: the same amount, converted by molar mass. Not every detail of the peptide structures is certain; ends, links or a residue may be inferred.

Assays:
[1] = test system: Pseudomonas aeruginosa ATCC 27853; assay: Antimicrobial assay, minimum inhibitory concentration (MIC); assay type: cell-based; conditions: P. aeruginosa ATCC 27853, LB medium, 37° C., no change in OD 620nm between 0 and 18 hours
[2] = test system: Staphylococcus aureus ATCC 29213; assay: as above; assay type: cell-based; conditions: S. aureus ATCC 29213, LB medium, 37° C., no change in OD 620nm between 0 and 18 hours

Row | SMILES | MIC P. aeruginosa [1] [µg/mL] | MIC S. aureus [2] [µg/mL]
1 | CC[C@H](C)[C@H](NC(=O)CN)C(=O)NCC(=O)N[C@@H](C)C(=O)N[C@H](C(=O)N[C@@H](CC(C)C)C(=O)N[C@@H](CCCCN)C(=O)N[C@H](C(=O)N[C@@H](CC(C)C)C(=O)N[C@H](C(=O)N[C@H](C(=O)NCC(=O)N1CCC[C@H]1C(=O)N[C@@H](C)C(=O)N[C@@H](CC(C)C)C(=O)N[C@H](C(=O)N[C@@H](CO)C(=O)N[C@@H](Cc1c[nH]c2ccccc12)C(=O)N[C@H](C(=O)N[C@@H](CCCCN)C(=O)N[C@@H](CCCNC(=N)N)C(=O)N[C@@H](CCCCN)C(=O)N[C@@H](CCCNC(=N)N)C(=O)N[C@@H](CCC(N)=O)C(=O)N[C@@H](CCC(N)=O)C(N)=O)[C@@H](C)CC)[C@@H](C)CC)[C@@H](C)O)[C@@H](C)O)C(C)C)C(C)C [SEQ ID NO: 13] | > 100 | > 100
2 | CC[C@H](C)[C@H](NC(=O)CN)C(=O)NCC(=O)N[C@@H](C)C(=O)N[C@H](C(=O)N[C@@H](CC(C)C)C(=O)N[C@@H](CCCCN)C(=O)N[C@H](C(=O)N[C@@H](CC(C)C)C(=O)N[C@H](C(=O)N[C@H](C(=O)NCC(=O)N[C@@H](CC(C)C)C(=O)N[C@@H](C)C(=O)N[C@@H](CC(C)C)C(=O)N[C@H](C(=O)N[C@@H](CO)C(=O)N[C@@H](Cc1c[nH]c2ccccc12)C(=O)N[C@H](C(=O)N[C@@H](CCCCN)C(=O)N[C@@H](CCCNC(=N)N)C(=O)N[C@@H](CCCCN)C(=O)N[C@@H](CCCNC(=N)N)C(=O)N[C@@H](CCC(N)=O)C(=O)N[C@@H](CCC(N)=O)C(N)=O)[C@@H](C)CC)[C@@H](C)CC)[C@@H](C)O)[C@@H](C)O)C(C)C)C(C)C [SEQ ID NO: 14] | 100 (≈ 36.4 µM) | 25 (≈ 9.09 µM)
3 | CC[C@H](C)[C@H](NC(=O)CN)C(=O)NCC(=O)N[C@@H](C)C(=O)N[C@H](C(=O)N[C@@H](CC(C)C)C(=O)N[C@@H](CCCCN)C(=O)N[C@H](C(=O)N[C@@H](CC(C)C)C(=O)N[C@H](C(=O)N[C@H](C(=O)NCC(=O)N[C@@H](CC(C)C)C(=O)N1CCC[C@H]1C(=O)N[C@@H](CC(C)C)C(=O)N[C@H](C(=O)N[C@@H](CO)C(=O)N[C@@H](Cc1c[nH]c2ccccc12)C(=O)N[C@H](C(=O)N[C@@H](CCCCN)C(=O)N[C@@H](CCCNC(=N)N)C(=O)N[C@@H](CCCCN)C(=O)N[C@@H](CCCNC(=N)N)C(=O)N[C@@H](CCC(N)=O)C(=O)N[C@@H](CCC(N)=O)C(N)=O)[C@@H](C)CC)[C@@H](C)CC)[C@@H](C)O)[C@@H](C)O)C(C)C)C(C)C [SEQ ID NO: 15] | 100 (≈ 36 µM) | 25 (≈ 9.01 µM)
4 | CC[C@H](C)[C@H](NC(=O)CN)C(=O)NCC(=O)N[C@@H](C)C(=O)N[C@H](C(=O)N[C@@H](CC(C)C)C(=O)N[C@@H](CCCCN)C(=O)N[C@H](C(=O)N[C@@H](CC(C)C)C(=O)N[C@H](C(=O)N[C@H](C(=O)NCC(=O)N[C@@H](CC(C)C)C(=O)N1CCC[C@H]1C(=O)N[C@@H](C)C(=O)N[C@H](C(=O)N[C@@H](CO)C(=O)N[C@@H](Cc1c[nH]c2ccccc12)C(=O)N[C@H](C(=O)N[C@@H](CCCCN)C(=O)N[C@@H](CCCNC(=N)N)C(=O)N[C@@H](CCCCN)C(=O)N[C@@H](CCCNC(=N)N)C(=O)N[C@@H](CCC(N)=O)C(=O)N[C@@H](CCC(N)=O)C(N)=O)[C@@H](C)CC)[C@@H](C)CC)[C@@H](C)O)[C@@H](C)O)C(C)C)C(C)C [SEQ ID NO: 16] | 100 (≈ 36.6 µM) | > 100
5 | CC[C@H](C)[C@H](NC(=O)CN)C(=O)NCC(=O)N[C@@H](C)C(=O)N[C@H](C(=O)N[C@@H](CC(C)C)C(=O)N[C@@H](CCCCN)C(=O)N[C@H](C(=O)N[C@@H](CC(C)C)C(=O)N[C@H](C(=O)N[C@H](C(=O)NCC(=O)N[C@@H](CC(C)C)C(=O)N1CCC[C@H]1C(=O)N[C@@H](C)C(=O)N[C@@H](CC(C)C)C(=O)N[C@@H](CO)C(=O)N[C@@H](Cc1c[nH]c2ccccc12)C(=O)N[C@H](C(=O)N[C@@H](CCCCN)C(=O)N[C@@H](CCCNC(=N)N)C(=O)N[C@@H](CCCCN)C(=O)N[C@@H](CCCNC(=N)N)C(=O)N[C@@H](CCC(N)=O)C(=O)N[C@@H](CCC(N)=O)C(N)=O)[C@@H](C)CC)[C@@H](C)O)[C@@H](C)O)C(C)C)C(C)C [SEQ ID NO: 17] | 100 (≈ 36.6 µM) | > 100
6 | CC[C@H](C)[C@H](NC(=O)CN)C(=O)NCC(=O)N[C@@H](C)C(=O)N[C@H](C(=O)N[C@@H](CC(C)C)C(=O)N[C@@H](CCCCN)C(=O)N[C@H](C(=O)N[C@@H](CC(C)C)C(=O)N[C@H](C(=O)N[C@H](C(=O)NCC(=O)N[C@@H](CC(C)C)C(=O)N1CCC[C@H]1C(=O)N[C@@H](C)C(=O)N[C@@H](CC(C)C)C(=O)N[C@H](C(=O)N[C@@H](Cc1c[nH]c2ccccc12)C(=O)N[C@H](C(=O)N[C@@H](CCCCN)C(=O)N[C@@H](CCCNC(=N)N)C(=O)N[C@@H](CCCCN)C(=O)N[C@@H](CCCNC(=N)N)C(=O)N[C@@H](CCC(N)=O)C(=O)N[C@@H](CCC(N)=O)C(N)=O)[C@@H](C)CC)[C@@H](C)CC)[C@@H](C)O)[C@@H](C)O)C(C)C)C(C)C [SEQ ID NO: 18] | 100 (≈ 36.2 µM) | 100 (≈ 36.2 µM)
7 | CC[C@H](C)[C@H](NC(=O)CN)C(=O)NCC(=O)N[C@@H](C)C(=O)N[C@H](C(=O)N[C@@H](CC(C)C)C(=O)N[C@@H](CCCCN)C(=O)N[C@H](C(=O)N[C@@H](CC(C)C)C(=O)N[C@H](C(=O)N[C@H](C(=O)NCC(=O)N[C@@H](CC(C)C)C(=O)N1CCC[C@H]1C(=O)N[C@@H](C)C(=O)N[C@@H](CC(C)C)C(=O)N[C@H](C(=O)N[C@@H](CO)C(=O)N[C@H](C(=O)N[C@@H](CCCCN)C(=O)N[C@@H](CCCNC(=N)N)C(=O)N[C@@H](CCCCN)C(=O)N[C@@H](CCCNC(=N)N)C(=O)N[C@@H](CCC(N)=O)C(=O)N[C@@H](CCC(N)=O)C(N)=O)[C@@H](C)CC)[C@@H](C)CC)[C@@H](C)O)[C@@H](C)O)C(C)C)C(C)C [SEQ ID NO: 19] | > 100 | > 100
8 | CC[C@H](C)[C@H](NC(=O)CN)C(=O)NCC(=O)N[C@@H](C)C(=O)N[C@H](C(=O)N[C@@H](CC(C)C)C(=O)N[C@@H](CCCCN)C(=O)N[C@H](C(=O)N[C@@H](CC(C)C)C(=O)N[C@H](C(=O)N[C@H](C(=O)NCC(=O)N[C@@H](CC(C)C)C(=O)N1CCC[C@H]1C(=O)N[C@@H](C)C(=O)N[C@@H](CC(C)C)C(=O)N[C@H](C(=O)N[C@@H](CO)C(=O)N[C@@H](Cc1c[nH]c2ccccc12)C(=O)N[C@@H](CCCCN)C(=O)N[C@@H](CCCNC(=N)N)C(=O)N[C@@H](CCCCN)C(=O)N[C@@H](CCCNC(=N)N)C(=O)N[C@@H](CCC(N)=O)C(=O)N[C@@H](CCC(N)=O)C(N)=O)[C@@H](C)CC)[C@@H](C)O)[C@@H](C)O)C(C)C)C(C)C [SEQ ID NO: 20] | 50 (≈ 18.3 µM) | 50 (≈ 18.3 µM)
9 | CC[C@H](C)[C@H](NC(=O)CN)C(=O)NCC(=O)N[C@@H](C)C(=O)N[C@H](C(=O)N[C@@H](CC(C)C)C(=O)N[C@@H](CCCCN)C(=O)N[C@H](C(=O)N[C@@H](CC(C)C)C(=O)N[C@H](C(=O)N[C@H](C(=O)NCC(=O)N[C@@H](CC(C)C)C(=O)N1CCC[C@H]1C(=O)N[C@@H](C)C(=O)N[C@@H](CC(C)C)C(=O)N[C@H](C(=O)N[C@@H](CO)C(=O)N[C@@H](Cc1c[nH]c2ccccc12)C(=O)N[C@H](C(=O)N[C@@H](CCCNC(=N)N)C(=O)N[C@@H](CCCCN)C(=O)N[C@@H](CCCNC(=N)N)C(=O)N[C@@H](CCC(N)=O)C(=O)N[C@@H](CCC(N)=O)C(N)=O)[C@@H](C)CC)[C@@H](C)CC)[C@@H](C)O)[C@@H](C)O)C(C)C)C(C)C [SEQ ID NO: 21] | 50 (≈ 18.4 µM) | 25 (≈ 9.2 µM)
